The text below walks through data of PubChem BioAssay AID1346428 (National Center for Advancing Translational Sciences (NCATS), 2018).

SMILES strings stand for the structures. Several values for one entry are separate records, joined by “and”; a condition that tells them apart may be missing. Identical values can stand only once. Among all 48,000 compounds or so, about 1,200 (2.5%) were called active. Roughly 2% stayed inconclusive and do not appear here.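 Rule for the calls: active = activation of at least 60% and not above a set upper limit (about 1 call in 100 departs from these limits); inconclusive = activation of 40% to 60%, or above that upper limit; inactive = activation under 40%.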 The list shows a part of the results.

UniProt O75388, sequence (O75388 whole entry, looked up): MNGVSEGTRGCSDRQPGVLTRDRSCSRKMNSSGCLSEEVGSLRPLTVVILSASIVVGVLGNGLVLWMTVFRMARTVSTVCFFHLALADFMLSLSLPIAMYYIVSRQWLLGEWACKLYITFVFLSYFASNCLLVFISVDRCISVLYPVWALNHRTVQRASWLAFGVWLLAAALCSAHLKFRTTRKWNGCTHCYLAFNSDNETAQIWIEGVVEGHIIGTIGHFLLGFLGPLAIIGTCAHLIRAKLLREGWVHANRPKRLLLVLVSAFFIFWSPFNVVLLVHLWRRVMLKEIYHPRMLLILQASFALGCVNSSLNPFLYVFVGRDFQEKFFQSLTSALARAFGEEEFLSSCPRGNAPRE

This experiment deals with Probable G-protein coupled receptor 32 (Homo sapiens) (UniProt O75388). Description: qHTS for Agonists of Human Resolvin D1 Receptor DRV1. The conditions noted are these: CHO-K1 GPR32 beta-arrestin PathHunter luminescence, 90 min; at 76.9 µM; hits give high values; zero percent set by DMSO-only wells. Put shortly:
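Beta-arrestin recruitment read-out: luminescence from complemented beta-Gal in CHO-K1 GPR32 PathHunter cells, measured 1 h after detection reagent at ambient temperature following 90 min compound exposure at 37 °C; DMSO served as basal (EC0) control.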
On to `CCOc1ccc(Nc2c3c(nc4nncn24)CCC3)cc1`, for which the activation is inactive: -14.5%.
In the case of `COc1ccc(C(=O)OCc2cc(=O)n3nc(C4CC4)sc3n2)cc1OC`, the activation is inactive: -9.04%.
For `COc1cc(OC)cc(N2C(=O)CSC23C(=O)Nc2ccccc23)c1` (stereo not given), the activation was inactive: -14.4%.
The same measure for `Cc1c(CC(=O)NCc2ccccc2Cl)c(=O)oc2cc(O)ccc12`: inactive: 37.3%.
Take `Cc1ccc2nc(-c3c[nH]c4ccccc34)c(Nc3ccc(F)cc3)n2c1`: the activation is inactive: 3.62%.
The same measure for `Cc1ccc(CNC(=O)C(C)n2c(=O)cc(-c3ccccc3)c3c(C)nn(C)c32)cc1` (stereo not given): inactive: -24.3%; for `Cc1ccc(-c2nnn3c2nc(NCc2ccc4c(c2)OCO4)c2ccccc23)cc1`: inactive: 35.5%; for `COc1ccccc1N1CCN(C(=O)c2ccc3c(c2)CCN3S(=O)(=O)c2ccccc2)CC1`: inactive: -14.7%.
For `Cc1oc(-c2ccccc2Cl)nc1CSc1nncn2c1cc1occc12`, the activation is inactive: -21%.
The same measure for `COc1ccc(Br)cc1CNC(=O)Cn1ncn2nc(-c3cccs3)cc2c1=O`: inactive: 0.201%; for `O=C(CCS(=O)(=O)c1cccc2nonc12)Nc1ccc(F)cc1F`: inactive: -8.05%; for `COc1ccc2c(Sc3ccccc3)c(C(=O)NCc3cc(Br)ccc3OC)[nH]c2c1`: inactive: -17.6%.
Consider `COc1ccccc1CNC(=O)c1ccc(CSc2nc3ccncc3n2Cc2cccc(F)c2)cc1`, for which the activation is inactive: -9.91%.
As to `Cc1ccc(OCC(=O)Nc2nc(-c3ccc(Br)cc3)ns2)cc1`, the activation is inactive: 16.1%.
For `O=C(NCCc1ccc(F)cc1)C(=O)NCC(c1cccs1)S(=O)(=O)c1ccccc1` (stereo not given), the activation was inactive: -1.34%.
The same measure for `CCCn1ccc2c(OCC(=O)Nc3ccc(OC)c(OC)c3)cccc2c1=O`: active: 85.6%; for `O=C(CC(c1cccs1)N1Cc2ccccc2C1=O)Nc1cccc(F)c1` (stereo not given): active: 61.1%; for `CCOc1ccccc1CNc1nc2nc(C)c(CC(=O)OC)c(=O)n2[nH]1`: inactive: 12.6%.
With `Cc1cccc(-c2nc(C)c(CCNC(=O)C(=O)Nc3ccc(C)c(C)c3)s2)c1`, the activation was inactive: 8.26%.
With `Cc1cc(C)c(/C=C2\C(=O)Nc3ccccc32)[nH]1`, the activation is inactive: -11.5% and inactive: -26.2%.
In the case of `CN/C(=C\[N+](=O)[O-])NCCSCc1csc(CN(C)C)n1`, the activation was inactive: 10.7%.
As for `O=C(CSc1nc(=O)[nH]c2c1CCC2)NCc1ccc(F)cc1`, the activation was inactive: -6.93%.
The same measure for `COc1ccc(Cl)cc1S(=O)(=O)N1CCN(C(=O)c2cc(-c3ccc(Br)cc3)n[nH]2)CC1`: inactive: 1.12%; for `Cc1ccc(-n2ncc3c(N4CCN(Cc5ccccc5)CC4)ncnc32)cc1`: inactive: 10.3%; for `Cc1cccc(C(=O)Nc2ccc(S(=O)(=O)N3CCCCC3c3cccnc3)cc2)c1` (stereo not given): inactive: -8.45%.
The same measure for `COc1ccc(CNC(=O)CS(=O)(=O)c2cccc3nsnc23)cc1`: inactive: -0.398%; for `Cc1cc2c(cc1Cl)N(C(=O)Nc1ccnc3ccccc13)CC2`: inactive: -9.57%; for `CCOc1cc(C2C(C(=O)OC)=C(C)NC3=C2C(=O)c2ccccc23)cc(Br)c1OCC` (stereo not given): inactive: -16.3%.
`Cc1cc(C)c(NC(=O)Cc2ccc(-n3c(C)nc4cccnc43)cc2)c(C)c1`: the activation was inactive: -6.48%.
In the case of `C=CC[N+]1([C@H]2C[C@H]3[C@@H]4CC[C@H]5C[C@H](OC(C)=O)[C@@H](N6CCCCC6)C[C@]5(C)[C@H]4CC[C@]3(C)[C@H]2OC(=O)CC)CCCCC1`, the activation is inactive: -36%.
For the compound `O=C(c1ccc([N+](=O)[O-])cc1)N1c2ncnn2C2(CCCCC2)[C@@H]2CCCC[C@@H]21`, the activation is inactive: 8.19%.
With `COc1ccc(Cl)cc1C(=O)NCc1nc(-c2cccc(C)c2)no1`, the activation is inactive: -9.68%.
Consider `CC1=C(C(=O)OC2CCCCCC2)C(c2ccc(Cl)cc2)CC(=O)N1` (stereo not given), for which the activation is inactive: -11.5%.
`Cc1ccc(OC(=O)CSc2nnc(-c3cccs3)o2)c(C)c1`: the activation is inactive: -12.6%.
The same measure for `CC(=O)Nc1ccc(NC(=O)C2Cc3ccccc3N2C(=O)c2ccccc2)cc1` (stereo not given): active: 100%; for `COc1ccc(Cn2c(CCC(=O)Nc3ccccc3OC)nc3cccnc32)cc1`: inactive: -5.53%; for `Cc1ccc2nc(-c3ccco3)c(Nc3ccc4c(c3)OCCO4)n2c1`: inactive: -3.83%.
Regarding `COc1ccc(CNC(=O)c2ccc(-c3nc(CS(=O)c4ccc(C)cc4)c(C)o3)cc2)cc1` (stereo not given), the activation is active: 69.7%.
As for `COc1cccc2[nH]c(C(=O)NCc3ccc4c(c3)CCN4C(=O)c3ccc(F)cc3)cc12`, the activation was inactive: -44.2%.
The same measure for `CCc1c(C)nc2nc(-c3ccccc3)nn2c1NCc1ccc(C)cc1`: active: 72.2%; for `O=C(CSc1cn(CCNC(=O)c2c(F)cccc2F)c2ccccc12)Nc1ccccc1F`: active: 65.5%; for `O=C1CC2(CCCC2)CC(=O)N1CCCCN1CCN(c2ncccn2)CC1`: inactive: -2.55% and inactive: 12.8%.
With `CCCC(=O)NCCc1c2n(c3ccc(OC)cc13)CCCc1ccccc1-2`, the activation is inactive: -19.9%.
The same measure for `Cc1oc2ccc(O)c(CN3CCCC(C)C3)c2c1C(=O)Nc1ccccc1` (stereo not given): inactive: 2.32%; for `CC(C)OCCCn1c(=O)c2ccccc2n2c(-c3ccccc3F)nnc12`: inactive: 0.202%; for `COc1ccc2c(c1)c(=O)c(C(=O)c1ccc(Cl)cc1)cn2CC(=O)Nc1ccc2c(c1)OCCO2`: inactive: -6.91%.
Regarding `CC(C)CCn1c(=O)c2sccc2n2c(CCCC(=O)NCc3ccc(F)cc3)nnc12`, the activation was inactive: -12%.
For `CCc1ccccc1NC(=O)c1cc(S(=O)(=O)N2CCCc3ccccc32)ccc1F`, the activation is inactive: -9.03%.
The same measure for `Cc1c(C(=O)Nc2ccc(F)cc2)sc2nc[nH]c(=O)c12`: inactive: -1.07%; for `CCOc1ccc(N(C)C(CNS(=O)(=O)c2ccccc2)c2ccccc2)cc1` (stereo not given): inactive: -3.44%.
Regarding `O=C(COc1ccccc1)Nc1cccc(-c2cn3cccnc3n2)c1`, the activation was inactive: 16.9%.
Turning to `Cc1cccc(N2CCN(C(=O)CCn3c(=O)c4cccn4c4cccnc43)CC2)c1C`, the activation was inactive: -7.39%.
On to `O=C(Cn1c(=O)c2cccn2c2ccc(F)cc21)N1CCN(c2ccc(F)cc2)CC1`, for which the activation is inactive: -15.7%.
As for `Fc1cccc(-n2ncc3c2ncn2nc(-c4ccccc4Cl)nc32)c1`, the activation was inactive: -8.66%.
Take `CCOc1ccccc1CNC(=O)c1cccn1-c1nnc(N2CCCCC2)s1`: the activation is inactive: 5.39%.
As for `Cc1ccn2c(=O)c(C(=O)NC(C)c3ccccc3)c(O)nc2c1` (stereo not given), the activation was inactive: -10.5%.
With `COc1ccc(C2=C(Nc3ccc(C)c(C)c3)c3ccccc3C2=O)cc1`, the activation was inactive: -11.5%.
`CCOc1ccc(C(=O)Nc2cc(-c3nc4ccccc4s3)ccc2OC)cc1`: the activation is inactive: -5.6%.
As to `COc1ccccc1N1CCN(C(=O)c2cc(-c3ccccc3O)on2)CC1`, the activation was inactive: 12.2%.
Regarding `Nc1ccc2cc3ccc(N)cc3nc2c1`, the activation was inactive: 32.4%.
The same measure for `N#Cc1cccc(NC(=O)c2cc3c(s2)-c2ccc(Cl)cc2SC3)c1`: inactive: -15%; for `Cc1nc(-c2ccc(S(=O)(=O)Nc3ccc(C)c(N(C)C)c3)cc2)co1`: inactive: 43.7%; for `COc1ccc(CCNC(=O)c2ccc3c(c2)N(Cc2ccc(F)cc2)CCS3)cc1OC`: inactive: -17.3%.
For `CCc1nn(CC(=O)NCc2ccccc2Cl)c(=O)c2cccn12`, the activation is inactive: -14.9%.
In the case of `O=C(COc1ccccc1[N+](=O)[O-])Nc1ccc(-c2nc3ccccc3s2)cc1`, the activation was inactive: 4.65%.
Take `Cc1cc(C)cc(NC(=O)c2cccc3c2C(=O)N(C2CCCCC2)C3)c1`: the activation was inactive: 1.23%.
As for `COc1ccc(S(=O)(=O)c2cc(NS(=O)(=O)c3ccc(Cl)cc3)c(C)c(C)c2O)cc1`, the activation was inactive: 23.6%.
On to `COc1ccc(NC(=O)c2cnc[nH]2)cc1`, for which the activation is inactive: 8.68%.
Consider `Cc1nc(SCC(=O)Nc2ccccc2F)[nH]c(=O)c1Cc1ccccc1`, for which the activation is inactive: -9.47%.
Regarding `O=S(=O)(c1ccccc1)c1nc(-c2cccs2)oc1SCc1ccc(F)cc1`, the activation is inactive: -17.4%.
For the compound `COc1ccccc1-n1c(-c2ccc(C)cc2)cn2c3c(=O)n(C)c(=O)n(C)c3nc12`, the activation was inactive: 7.36%.
For `CCC(Sc1nc2ccccc2c2nc(-c3ccccc3)nn12)C(=O)Nc1cccc(OC)c1` (stereo not given), the activation is inactive: -11.7%.
As for `Cc1c(Cl)cccc1NC(=O)CCN1C(=O)c2ccccc2Sc2ncccc21`, the activation is inactive: -9.57%.
Regarding `Cc1ccc2oc(=O)c3cnn(CC(=O)N4CCN(c5ccccc5)CC4)c3c2c1`, the activation is inactive: 7.46%.
The same measure for `COC(=O)c1c(NC(=O)CS(=O)(=O)c2ccc(C)cc2)sc2c1CCCC2`: inactive: -19.3%; for `CCC(C)NC(=O)CSc1nc2n[nH]c(C)c2c(=N)n1-c1ccc(C)c(Cl)c1` (stereo not given): inactive: -10.8%.
With `CC(C)(C)c1onc(OCP(=O)(O)O)c1CC(N)C(=O)O` (stereo not given), the activation is inactive: -1.3% and inactive: 3.96%.
Take `CCN(CC)C(=O)c1cc(-c2ccc(Cl)cc2)on1`: the activation is inactive: 21.2%.
As to `CCN(C(=O)Cn1nnc2sc(-c3ccccc3)cc2c1=O)c1cccc(C)c1`, the activation is inactive: -2.89%.
In the case of `Cc1cc(NC(=O)CCNS(=O)(=O)c2ccc3c(c2)oc(=O)n3C)ccc1Br`, the activation is inactive: 11.7%.
On to `O=C(Nc1cccc(Cl)c1)c1ccc(F)c(S(=O)(=O)N2CCC3(CC2)OCCO3)c1`, for which the activation is inactive: 1.14%.
Consider `O=C(Nc1ccc(F)cc1F)c1cc2nc(-c3ccco3)cc(C(F)(F)Cl)n2n1`, for which the activation is inactive: 6.83%.
Take `COc1ccc(NC(=O)CCn2c(=O)c3cccn3c3ccccc32)c(OC)c1`: the activation is inactive: -22.8%.
The same measure for `CCC1CN(C(=O)Nc2cccc3c2CCCC3)c2ccccc2O1` (stereo not given): inactive: -28.8%; for `COC(=O)c1cnn2c(C)c(Cc3c(C)cc(C)cc3C)c(C)nc12`: inactive: -2.18%.
